What all share (experiment): co-IP
One assay has as its target T1, HA-IKKα (UniProt O15111).
T1 sequence: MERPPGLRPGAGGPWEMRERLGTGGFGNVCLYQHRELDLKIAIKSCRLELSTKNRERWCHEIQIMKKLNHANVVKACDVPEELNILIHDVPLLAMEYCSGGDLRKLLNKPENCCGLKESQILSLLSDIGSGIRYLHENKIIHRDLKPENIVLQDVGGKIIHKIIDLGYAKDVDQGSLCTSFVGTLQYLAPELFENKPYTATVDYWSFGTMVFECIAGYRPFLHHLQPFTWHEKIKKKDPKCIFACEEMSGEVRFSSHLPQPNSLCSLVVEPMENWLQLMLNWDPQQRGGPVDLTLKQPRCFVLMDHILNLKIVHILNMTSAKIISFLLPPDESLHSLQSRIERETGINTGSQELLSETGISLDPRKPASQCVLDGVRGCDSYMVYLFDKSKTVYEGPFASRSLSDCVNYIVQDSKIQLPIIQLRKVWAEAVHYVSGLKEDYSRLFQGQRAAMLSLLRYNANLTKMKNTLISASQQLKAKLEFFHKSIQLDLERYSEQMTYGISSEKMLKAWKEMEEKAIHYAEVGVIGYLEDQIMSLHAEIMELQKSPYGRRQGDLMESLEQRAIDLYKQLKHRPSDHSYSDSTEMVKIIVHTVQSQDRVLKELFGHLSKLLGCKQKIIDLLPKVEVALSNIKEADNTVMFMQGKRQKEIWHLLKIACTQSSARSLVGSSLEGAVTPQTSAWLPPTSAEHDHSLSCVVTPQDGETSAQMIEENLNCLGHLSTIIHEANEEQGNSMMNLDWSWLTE

A further assay deals with T2, HA-IKKβ (UniProt O14920).
T2 sequence: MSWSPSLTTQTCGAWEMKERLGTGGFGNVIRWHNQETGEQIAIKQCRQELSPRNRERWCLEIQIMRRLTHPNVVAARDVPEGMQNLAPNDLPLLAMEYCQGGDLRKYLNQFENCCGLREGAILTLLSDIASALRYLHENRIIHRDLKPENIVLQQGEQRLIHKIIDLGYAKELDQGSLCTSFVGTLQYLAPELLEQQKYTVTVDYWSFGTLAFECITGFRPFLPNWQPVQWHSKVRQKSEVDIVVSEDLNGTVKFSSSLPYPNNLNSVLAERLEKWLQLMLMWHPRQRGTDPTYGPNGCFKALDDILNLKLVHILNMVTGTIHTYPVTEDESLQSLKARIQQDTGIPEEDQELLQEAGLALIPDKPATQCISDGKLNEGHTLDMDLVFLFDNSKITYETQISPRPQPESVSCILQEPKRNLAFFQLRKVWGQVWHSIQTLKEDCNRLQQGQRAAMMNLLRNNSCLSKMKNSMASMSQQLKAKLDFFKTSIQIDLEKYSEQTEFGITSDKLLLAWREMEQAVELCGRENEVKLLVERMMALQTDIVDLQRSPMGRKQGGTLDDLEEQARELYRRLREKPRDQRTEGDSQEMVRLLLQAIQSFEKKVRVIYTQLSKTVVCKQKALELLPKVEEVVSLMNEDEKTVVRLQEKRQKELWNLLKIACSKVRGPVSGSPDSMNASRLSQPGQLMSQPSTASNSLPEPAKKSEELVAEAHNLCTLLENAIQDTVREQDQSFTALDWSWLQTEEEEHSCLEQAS

Another assay addresses T3, HA-IKKε (UniProt Q14164).
T3 sequence: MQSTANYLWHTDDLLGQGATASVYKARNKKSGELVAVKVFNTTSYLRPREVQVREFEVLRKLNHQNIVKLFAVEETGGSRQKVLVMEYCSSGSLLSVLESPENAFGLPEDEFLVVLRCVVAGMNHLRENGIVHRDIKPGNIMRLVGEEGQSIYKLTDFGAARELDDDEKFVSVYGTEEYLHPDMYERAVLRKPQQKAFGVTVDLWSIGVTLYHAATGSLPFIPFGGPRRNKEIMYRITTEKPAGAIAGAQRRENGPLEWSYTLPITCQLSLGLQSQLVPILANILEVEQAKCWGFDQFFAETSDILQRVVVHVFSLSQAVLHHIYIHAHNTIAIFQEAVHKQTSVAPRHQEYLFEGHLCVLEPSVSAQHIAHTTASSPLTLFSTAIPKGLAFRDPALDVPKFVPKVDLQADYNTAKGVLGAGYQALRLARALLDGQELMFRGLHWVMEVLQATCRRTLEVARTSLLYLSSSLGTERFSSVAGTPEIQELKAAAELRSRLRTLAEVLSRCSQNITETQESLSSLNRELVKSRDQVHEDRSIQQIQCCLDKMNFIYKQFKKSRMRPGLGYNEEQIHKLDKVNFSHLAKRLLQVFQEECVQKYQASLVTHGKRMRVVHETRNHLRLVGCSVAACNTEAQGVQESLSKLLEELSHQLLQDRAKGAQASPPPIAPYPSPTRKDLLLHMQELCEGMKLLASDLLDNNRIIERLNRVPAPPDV

In assay [1] the target is T4, HA-TBK1 (TANK-binding kinase 1) (UniProt Q9UHD2).
T4 sequence: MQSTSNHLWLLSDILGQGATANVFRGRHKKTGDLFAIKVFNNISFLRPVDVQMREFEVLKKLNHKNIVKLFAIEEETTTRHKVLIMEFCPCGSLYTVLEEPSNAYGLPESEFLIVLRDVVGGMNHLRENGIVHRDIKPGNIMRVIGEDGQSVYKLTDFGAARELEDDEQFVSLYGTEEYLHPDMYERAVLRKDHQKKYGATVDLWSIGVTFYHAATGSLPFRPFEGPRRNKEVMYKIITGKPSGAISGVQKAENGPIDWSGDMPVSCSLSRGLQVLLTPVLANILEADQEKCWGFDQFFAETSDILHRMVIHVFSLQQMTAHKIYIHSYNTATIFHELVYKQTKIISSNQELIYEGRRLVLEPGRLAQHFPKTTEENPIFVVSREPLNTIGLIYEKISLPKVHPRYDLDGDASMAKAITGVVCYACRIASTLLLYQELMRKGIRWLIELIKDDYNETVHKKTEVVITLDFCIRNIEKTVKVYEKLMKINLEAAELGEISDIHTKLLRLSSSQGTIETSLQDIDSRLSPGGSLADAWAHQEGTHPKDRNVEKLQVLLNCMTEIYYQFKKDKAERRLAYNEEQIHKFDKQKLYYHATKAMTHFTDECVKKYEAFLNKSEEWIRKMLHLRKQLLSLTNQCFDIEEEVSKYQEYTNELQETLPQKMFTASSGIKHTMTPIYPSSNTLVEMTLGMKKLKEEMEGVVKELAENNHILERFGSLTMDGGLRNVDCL

For assay [2], the target named is T5, HA-GADD45A (goat growth arrest and DNA damage protein 45A) (goat).
T5 sequence: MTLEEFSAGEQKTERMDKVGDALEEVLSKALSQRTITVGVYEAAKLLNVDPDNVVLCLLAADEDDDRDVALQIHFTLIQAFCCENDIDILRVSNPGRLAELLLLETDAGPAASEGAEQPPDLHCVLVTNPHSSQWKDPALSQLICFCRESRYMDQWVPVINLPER

Results are given in words; binding and its absence hold for the method and conditions named. In cells and extracts the contact can be indirect. Some entries that bind do so weakly or less than the wild type. Sequences can lack the tags named with a protein.

B1: Myc-GADD45A (goat growth arrest and DNA damage protein 45A) (protein, UniProt A0A452G3C0 1-165)
chain: T5 sequence
For the molecule B1, the binding result is on record as “no binding” in the assay with HA-IKKα, “no binding” in the assay with HA-IKKβ, “no binding” with HA-IKKε and “binds” in assay [1].

B2: Flag-TBK1 (TANK-binding kinase 1) (enzyme, UniProt Q9UHD2 1-729)
chain: T4 sequence
In the case of B2, the binding result in assay [2] is “binds”.

For the origin of these results see article PMC12184620.
